# The antibiotic and cytotoxicity screens of Wong et al. (2023)
# Some of the results follow.
# Test system: HSkMC (human skeletal muscle cells)
# Experiment: cytotoxicity call (relative viability < 0.9)
# Settings: 10 µM
row,Structure (SMILES),cytotoxicity call
1,C[C@H]1CCCCO[C@H](CN(C)C(=O)c2ccccc2)[C@@H](C)CN([C@@H](C)CO)C(=O)c2cc(NC(=O)NC3CCCCC3)ccc2O1,inactive
2,C[C@@H]1CN([C@@H](C)CO)S(=O)(=O)c2ccc(C#CC(C)(C)O)cc2O[C@H]1CN(C)Cc1ccc(F)cc1,inactive
3,O=C(C[C@@H]1C[C@H]2c3cc(NC(=O)NC4CCCC4)ccc3O[C@H]2[C@@H](CO)O1)NCc1ccc(Oc2ccccc2)cc1,inactive
4,Cc1noc(C)c1S(=O)(=O)N(C)C[C@H]1OCCCC[C@H](C)Oc2ccc(NS(C)(=O)=O)cc2C(=O)N([C@@H](C)CO)C[C@@H]1C,inactive
5,Cc1ccc(S(=O)(=O)N[C@@H](Cc2ccccc2)C(=O)NCCCn2cc(CCC(=O)NO)nn2)cc1,inactive
6,C[C@H](CO)N1C[C@H](C)[C@H](CN(C)Cc2ccc(C(=O)O)cc2)Oc2c(NC(=O)C3CCOCC3)cccc2C1=O,inactive
7,"CC(C)=CCCC(C)=CCCC(C)=CCO [trans,trans-FARNESOL ]",inactive
8,COc1ccc(S(=O)(=O)Nc2ccc3c(c2)CC(=O)N([C@@H](C)CO)C[C@H](C)[C@H](CN(C)S(=O)(=O)c2cccs2)O3)cc1,inactive
9,CC1(C)CCC2=C(O1)C(=O)c1ccccc1C2=O [alpha-LAPACHONE ],inactive
10,C[C@H]1CN([C@@H](C)CO)C(=O)c2cc(NS(=O)(=O)c3cn(C)cn3)ccc2O[C@H]1CN(C)Cc1ccccc1,inactive
11,COc1ccc(NC(=O)Nc2ccc3c(c2)C(=O)N([C@H](C)CO)C[C@@H](C)[C@@H](CN(C)S(C)(=O)=O)O3)cc1,inactive
